Our source for the binding signal (RPM ratio (pull-down/input)) values is publication PMC12820563.

The other results are listed elsewhere or left out. The list includes weakly bound sequences.

For the assay, the target named is T1, MBP-FoxP3dN (UniProt Q99JB6).
T1 sequence: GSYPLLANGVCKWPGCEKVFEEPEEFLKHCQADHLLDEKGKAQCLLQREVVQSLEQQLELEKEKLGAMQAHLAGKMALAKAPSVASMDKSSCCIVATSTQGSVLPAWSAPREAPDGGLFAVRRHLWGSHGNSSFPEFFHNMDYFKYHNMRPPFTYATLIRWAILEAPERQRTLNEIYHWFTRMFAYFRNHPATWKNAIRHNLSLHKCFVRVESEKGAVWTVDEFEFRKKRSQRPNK
Description: PD-seq (MBP pull-down with sequencing). As to conditions: 20 mM Tris-HCl pH 7.5, 100 mM NaCl, 1.5 mM MgCl2, 0.4 uM protein, 0.1 uM dsDNA library, 30 min, room temperature, amylose pull-down; high values mean tight binding; double strand, one strand shown.
Turning to “GATGATTGTTCTCCCAGCTGATGAATTACACGCCTCGAGTAAACAAATTTTCCTAATCTTTCTGTTCAAGCGCCATCTAC”, the binding signal (RPM ratio (pull-down/input)) was found to be 0.758.
As for “GATGATTGTTCTCCCAGCTGATGAATTTGCCGAGTCGAGTAAACAAATTTTCCTAATCTTTCTGTTCAAGCGCCATCTAC”, the binding signal (RPM ratio (pull-down/input)) was 0.293.
With “GATGATTGTTCTCCCAGCTGATGAATTCGTACGTTCGAGTAAACAAATTTTCCTAATCTTTCTGTTCAAGCGCCATCTAC” the figure was 0.486; with “GATGATTGTTCTCCCAGCTGATGAATTTTGACGCTCGAGTAAACAAATTTTCCTAATCTTTCTGTTCAAGCGCCATCTAC”, 0.641.
In the case of “GATGATTGTTCTCCCAGCTGATGAATTCCGAACCTCGAGTAAACAAATTTTCCTAATCTTTCTGTTCAAGCGCCATCTAC”, the binding signal (RPM ratio (pull-down/input)) was determined as 0.311.
For “GATGATTGTTCTCCCAGCTGATGAATTTTACTCCTCGAGTAAACAAATTTTCCTAATCTTTCTGTTCAAGCGCCATCTAC”, the binding signal (RPM ratio (pull-down/input)) amounted to 0.333.
With “GATGATTGTTCTCCCAGCTGATGAATTCACTGTTTCGAGTAAACAAATTTTCCTAATCTTTCTGTTCAAGCGCCATCTAC” the figure was 0.614; with “GATGATTGTTCTCCCAGCTGATGAATTGATCACTTCGAGTAAACAAATTTTCCTAATCTTTCTGTTCAAGCGCCATCTAC”, 0.776; with “GATGATTGTTCTCCCAGCTGATGAATTGTGATTATCGAGTAAACAAATTTTCCTAATCTTTCTGTTCAAGCGCCATCTAC”, 4.32.
As for “GATGATTGTTCTCCCAGCTGATGAATTGAGACTATCGAGTAAACAAATTTTCCTAATCTTTCTGTTCAAGCGCCATCTAC”, the binding signal (RPM ratio (pull-down/input)) worked out at 0.692.
Consider “GATGATTGTTCTCCCAGCTGATGAATTAGGACGATCGAGTAAACAAATTTTCCTAATCTTTCTGTTCAAGCGCCATCTAC”, for which the binding signal (RPM ratio (pull-down/input)) was 0.263.
With “GATGATTGTTCTCCCAGCTGATGAATTTAGCACGTCGAGTAAACAAATTTTCCTAATCTTTCTGTTCAAGCGCCATCTAC” the figure was 1.51; with “GATGATTGTTCTCCCAGCTGATGAATTGCTGACCTCGAGTAAACAAATTTTCCTAATCTTTCTGTTCAAGCGCCATCTAC”, 0.592.
For the sequence “GATGATTGTTCTCCCAGCTGATGAATTCCACTATTCGAGTAAACAAATTTTCCTAATCTTTCTGTTCAAGCGCCATCTAC”, the binding signal (RPM ratio (pull-down/input)) stood at 0.465.
As for “GATGATTGTTCTCCCAGCTGATGAATTACGATAATCGAGTAAACAAATTTTCCTAATCTTTCTGTTCAAGCGCCATCTAC”, the binding signal (RPM ratio (pull-down/input)) amounted to 0.405.
With “GATGATTGTTCTCCCAGCTGATGAATTCGACTGCTCGAGTAAACAAATTTTCCTAATCTTTCTGTTCAAGCGCCATCTAC” the figure was 0.373.
With “GATGATTGTTCTCCCAGCTGATGAATTGCTTCTATCGAGTAAACAAATTTTCCTAATCTTTCTGTTCAAGCGCCATCTAC” the figure was 0.615; with “GATGATTGTTCTCCCAGCTGATGAATTGTACCGCTCGAGTAAACAAATTTTCCTAATCTTTCTGTTCAAGCGCCATCTAC”, 0.403.
With “GATGATTGTTCTCCCAGCTGATGAATTGTCGCGATCGAGTAAACAAATTTTCCTAATCTTTCTGTTCAAGCGCCATCTAC” the figure was 0.66; with “GATGATTGTTCTCCCAGCTGATGAATTTGACGAATCGAGTAAACAAATTTTCCTAATCTTTCTGTTCAAGCGCCATCTAC”, 0.208; with “GATGATTGTTCTCCCAGCTGATGAATTATTCCTGTCGAGTAAACAAATTTTCCTAATCTTTCTGTTCAAGCGCCATCTAC”, 0.277.
With “GATGATTGTTCTCCCAGCTGATGAATTAAACATATCGAGTAAACAAATTTTCCTAATCTTTCTGTTCAAGCGCCATCTAC”, the binding signal (RPM ratio (pull-down/input)) turned out to be 0.699.
With “GATGATTGTTCTCCCAGCTGATGAATTCTAGCCGTCGAGTAAACAAATTTTCCTAATCTTTCTGTTCAAGCGCCATCTAC”, the binding signal (RPM ratio (pull-down/input)) is 0.377.
Turning to “GATGATTGTTCTCCCAGCTGATGAATTAGCCTATTCGAGTAAACAAATTTTCCTAATCTTTCTGTTCAAGCGCCATCTAC”, the binding signal (RPM ratio (pull-down/input)) was 0.482.
As for “GATGATTGTTCTCCCAGCTGATGAATTATTACCCTCGAGTAAACAAATTTTCCTAATCTTTCTGTTCAAGCGCCATCTAC”, the binding signal (RPM ratio (pull-down/input)) is 0.354.
With “GATGATTGTTCTCCCAGCTGATGAATTACGCGGATCGAGTAAACAAATTTTCCTAATCTTTCTGTTCAAGCGCCATCTAC” the figure was 0.337; with “GATGATTGTTCTCCCAGCTGATGAATTGAGGGGATCGAGTAAACAAATTTTCCTAATCTTTCTGTTCAAGCGCCATCTAC”, 0.347.
With “GATGATTGTTCTCCCAGCTGATGAATTAGGTGTATCGAGTAAACAAATTTTCCTAATCTTTCTGTTCAAGCGCCATCTAC” the figure was 1.91; with “GATGATTGTTCTCCCAGCTGATGAATTAGTTGATTCGAGTAAACAAATTTTCCTAATCTTTCTGTTCAAGCGCCATCTAC”, 4.37.
As for “GATGATTGTTCTCCCAGCTGATGAATTATTACAGTCGAGTAAACAAATTTTCCTAATCTTTCTGTTCAAGCGCCATCTAC”, the binding signal (RPM ratio (pull-down/input)) worked out at 0.351.
With “GATGATTGTTCTCCCAGCTGATGAATTCGGGTCATCGAGTAAACAAATTTTCCTAATCTTTCTGTTCAAGCGCCATCTAC” the figure was 0.619; with “GATGATTGTTCTCCCAGCTGATGAATTACACTCGTCGAGTAAACAAATTTTCCTAATCTTTCTGTTCAAGCGCCATCTAC”, 0.633; with “GATGATTGTTCTCCCAGCTGATGAATTTACGACGTCGAGTAAACAAATTTTCCTAATCTTTCTGTTCAAGCGCCATCTAC”, 0.474.
With “GATGATTGTTCTCCCAGCTGATGAATTGCTGGCATCGAGTAAACAAATTTTCCTAATCTTTCTGTTCAAGCGCCATCTAC” the figure was 0.912.
For the sequence “GATGATTGTTCTCCCAGCTGATGAATTCTCATCTTCGAGTAAACAAATTTTCCTAATCTTTCTGTTCAAGCGCCATCTAC”, the binding signal (RPM ratio (pull-down/input)) was determined as 0.353.
With “GATGATTGTTCTCCCAGCTGATGAATTAAGCATATCGAGTAAACAAATTTTCCTAATCTTTCTGTTCAAGCGCCATCTAC” the figure was 2.49; with “GATGATTGTTCTCCCAGCTGATGAATTCTCATGGTCGAGTAAACAAATTTTCCTAATCTTTCTGTTCAAGCGCCATCTAC”, 0.26.
With “GATGATTGTTCTCCCAGCTGATGAATTAGGTGAGTCGAGTAAACAAATTTTCCTAATCTTTCTGTTCAAGCGCCATCTAC” the figure was 0.531; with “GATGATTGTTCTCCCAGCTGATGAATTCTGAACATCGAGTAAACAAATTTTCCTAATCTTTCTGTTCAAGCGCCATCTAC”, 0.395; with “GATGATTGTTCTCCCAGCTGATGAATTCAGACGCTCGAGTAAACAAATTTTCCTAATCTTTCTGTTCAAGCGCCATCTAC”, 0.349.
